# Experimental data: the supplement of paper PMC4166925
# ± gives the standard deviation of the averaged measurements. In all, about 33,000 sequences were measured (“E-score (dimensionless, -0.5 to 0.5)”: median about -0.049, highest 2% from about 0.37 on). This is one part of the list.
# Test system: T1, PmTbr T-box DNA-binding domain (GST fusion)
# T1 sequence: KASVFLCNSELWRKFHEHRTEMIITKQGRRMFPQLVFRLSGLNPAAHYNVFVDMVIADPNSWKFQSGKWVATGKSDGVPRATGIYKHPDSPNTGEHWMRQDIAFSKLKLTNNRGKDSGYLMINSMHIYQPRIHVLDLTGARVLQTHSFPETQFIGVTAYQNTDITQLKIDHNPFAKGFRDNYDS
# Assay: PBM E-score of 8-mer (E-score (dimensionless, -0.5 to 0.5)); Tbr is Tbrain of the sea star Patiria miniata (Pm) or the sea urchin Strongylocentrotus purpuratus (Sp); higher = stronger binding preference; most listed sequences are background and not binding sites
# Conditions: the construct has about 5 more residues each side
# Experimental: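 Universal protein-binding microarray (Agilent AMADID 016060, 60-bp probes with a 35-bp variable region) incubated with 200 nM GST-fused Patiria miniata Tbr T-box DNA-binding domain (residues 272-466) in PBS pH 7.5. Scored for every ungapped 8-mer (given with its reverse complement) by the Universal PBM Analysis Suite as E-score (modified Wilcoxon-Mann-Whitney enrichment, range -0.5 to 0.5; >0.45 counts as bound) and Z-score of median probe intensity. Two replicate arrays (datasets 1 and 2).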
# 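Note: 200 nM protein in PBS on universal arrays averaged over duplicate arrays.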
row,Sequence,PBM E-score of 8-mer
1,TAGGAAAA,-0.238 ± 0.011
2,ACCGCTTA,-0.264 ± 0.036
3,AAGCTCGG,-0.0972 ± 0.0053
4,AGAGATTG,0.0395 ± 0.077
5,AGAGCTGA,-0.121 ± 0.0094
6,ATTGTTCC,-0.116 ± 0.042
7,AGGCGGAG,-0.153 ± 0.052
8,AGTCGGCA,0.00896 ± 0.086
9,GCGCAGCC,-0.0806 ± 0.044
10,ATATAGAT,-0.118 ± 0.0054
11,GTCGTGTA,-0.113 ± 0.021
12,AACCCACG,-0.0612 ± 0.011
13,CACCCCAG,0.296 ± 0.035
14,AATCCACA,0.142 ± 0.032
15,CCGTCAAC,0.17 ± 0.063
16,AGGTTGGG,-0.19 ± 0.09
17,TCACCCCA,0.277 ± 0.028
18,AATATCCA,-0.0969 ± 0.06
19,AGTATGAC,0.108 ± 0.0027
20,GAGTGGAC,-0.0288 ± 0.0039
21,GCGATGAC,0.129 ± 0.075
22,AAAATGTG,0.27 ± 0.095
23,CCGTGATA,0.0314 ± 0.051
24,AAACCAGG,0.0346 ± 0.032
25,ACCCTCAC,0.134 ± 0.027

row,Sequence,PBM E-score of 8-mer
1,ATAGCTGA,-0.0524 ± 0.042
2,GATTTCCA,0.119 ± 0.089
3,AAGCTAGA,-0.243 ± 0.061
4,GGAAGATA,-0.202 ± 0.043
5,CGCACCTC,0.46 ± 0.012
6,CAGTTGCA,0.153 ± 0.0058
7,CATGTTAC,-0.082 ± 0.053
8,GTAGCAAA,0.0673 ± 0.034
9,CAGCCCCG,-0.229 ± 0.0034
10,CCATAGCC,-0.144 ± 0.005
11,CCGGCCGA,-0.195 ± 0.064
12,TAGCGTCA,0.203 ± 0.013
13,ATCGGCAT,-0.113 ± 0.0075
14,CACTCTTC,0.198 ± 0.067
15,GTTAATGA,-0.0185 ± 0.1
16,CACGCAGG,0.178 ± 0.013
17,CGACAGCC,0.0934 ± 0.031
18,AAGACATC,-0.106 ± 0.014
19,ATCCTGGA,-0.102 ± 0.034
20,GGTCCATA,-0.312 ± 0.024
21,ATGATTTC,0.0109 ± 0.057
22,GTGAAACA,0.188 ± 0.036
23,CCCCCAGG,-0.158 ± 0.029
24,CGTAAAAC,-0.145 ± 0.089
25,CGACATTA,0.136 ± 0.021

row,Sequence,PBM E-score of 8-mer
1,GTAGCCTA,-0.0631 ± 0.06
2,GCATTGAA,-0.19 ± 0.044
3,GTAGCGAC,0.171 ± 0.012
4,GGCCTAGA,-0.326 ± 0.028
5,AGGTAGTC,-0.274 ± 0.053
6,AGCCAGAC,-0.251 ± 0.013
7,ACTCTGAC,0.114 ± 0.032
8,ACTCATCG,-0.0034 ± 0.056
9,GACAGGAC,0.00186 ± 0.0023
10,GGCCAGGA,-0.197 ± 0.062
11,CGTGTCCC,-0.0561 ± 0.065
12,GCTAACGA,0.274 ± 0.0092
13,AACTTACA,0.0426 ± 0.038
14,CATAAATG,0.0124 ± 0.021
15,CATCTTTC,0.022 ± 0.032
16,ACACCCAT,0.333 ± 0.021
17,GCGCTACA,0.131 ± 0.063
18,AAATGTCC,-0.152 ± 0.023
19,AAATTCCC,-0.166 ± 0.013
20,AATGGCGT,0.208 ± 0.06
21,GGGGGATA,0.000625 ± 0.059
22,AAGGCACG,-0.0734 ± 0.0059
23,AAGTAAGA,-0.133 ± 0.027
24,GTGGGCAA,-0.128 ± 0.038
25,AAGTCGCC,-0.0381 ± 0.062

row,Sequence,PBM E-score of 8-mer
1,CAGGCAAA,-0.332 ± 0.035
2,CCTGGACC,-0.229 ± 0.018
3,ATCGGAAC,-0.1 ± 0.0083
4,ACCCCACG,-0.112 ± 0.085
5,GCGCTAAC,0.4144 ± 0.0034
6,CCAGAGCG,-0.218 ± 0.092
7,ACGTCTAC,-0.1942 ± 0.0013
8,AAATCCCC,-0.151 ± 0.024
9,AGCCTGAA,-0.153 ± 0.018
10,ATGCTCGC,0.14 ± 0.0031
11,CTAACTAA,0.207 ± 0.013
12,AACTTGGC,0.0756 ± 0.007
13,ACCATTGG,-0.068 ± 0.046
14,ACTGACGG,0.0814 ± 0.057
15,ACTCCCTC,0.00055 ± 0.049
16,GACGCATA,0.00583 ± 0.0042
17,ACACACTC,0.269 ± 0.0055
18,AACGCCTA,0.279 ± 0.034
19,CATGAATA,-0.245 ± 0.015
20,AAGTGTGG,0.3837 ± 0.00044
21,ATCACACA,0.418 ± 0.01
22,CATCGACA,0.202 ± 0.04
23,CGGGAACG,-0.0131 ± 0.032
24,ACCCCGAG,0.0296 ± 0.023
25,AGGCCTGC,-0.202 ± 0.013

row,Sequence,PBM E-score of 8-mer
1,AGTCCTCG,-0.164 ± 0.087
2,GGAGCGGA,-0.17 ± 0.046
3,TGATCAAA,-0.217 ± 0.15
4,ATAGTAAA,-0.256 ± 0.014
5,CAACCCGG,-0.111 ± 0.05
6,GAAATAGC,0.206 ± 0.06
7,CCAGTCAC,0.113 ± 0.011
8,CTGCGGCA,0.0147 ± 0.0018
9,CGTTACCC,0.152 ± 0.013
10,AACCGCCA,0.00671 ± 0.1
11,GACGTACA,0.0446 ± 0.026
12,GTTTCAGA,-0.18 ± 0.083
13,AGCGAGCC,-0.0788 ± 0.064
14,AGAGAGTC,-0.204 ± 0.036
15,ACCCAAGA,-0.0386 ± 0.041
16,CCGTCGGC,-0.0171 ± 0.053
17,AAAATTGC,0.0481 ± 0.11
18,CAATGGTG,0.22 ± 0.027
19,ATGGTTCC,-0.299 ± 0.042
20,GTGGGAGA,0.0219 ± 0.0053
21,CGACCGAG,-0.0839 ± 0.0083
22,CAACTTGC,0.225 ± 0.025
23,CATCGAGA,0.142 ± 0.095
24,CGCGCACA,0.0752 ± 0.002
25,AAAATGTC,0.0857 ± 0.051

row,Sequence,PBM E-score of 8-mer
1,AGCTCTGG,-0.121 ± 0.14
2,ATGCTAAC,0.0631 ± 0.061
3,ACTCCGAC,-0.0585 ± 0.0096
4,AGACCGCT,-0.0767 ± 0.028
5,CCACCTAA,0.146 ± 0.058
6,CTCAGAAG,-0.162 ± 0.0033
7,ACGGGTGG,0.0219 ± 0.074
8,CATAACAA,0.0483 ± 0.038
9,AACGGAGC,0.00505 ± 0.0014
10,CCCCGTAC,-0.0367 ± 0.049
11,GGCTGCCA,0.124 ± 0.029
12,CACACGTC,0.4359 ± 0.0027
13,AAGTCACT,-0.056 ± 0.057
14,CAGATGTC,-0.0861 ± 0.049
15,ACTCCCGG,-0.111 ± 0.059
16,CCTCCCTA,-0.0941 ± 0.083
17,CTCAGCTC,-0.0697 ± 0.016
18,GATGGAGA,-0.177 ± 0.055
19,ATGACAGC,0.0891 ± 0.025
20,GAGGAAGC,-0.0945 ± 0.037
21,ACGGGGCC,-0.169 ± 0.023
22,CTTTAAGC,-0.207 ± 0.0037
23,CTCGATCC,-0.201 ± 0.07
24,CTCTACCC,-0.178 ± 0.056
25,AAGATCTC,0.061 ± 0.054

row,Sequence,PBM E-score of 8-mer
1,GGGAACAC,0.196 ± 0.023
2,AATACTAG,-0.0965 ± 0.039
3,CGACCAAC,0.00547 ± 0.043
4,AGACACCG,0.185 ± 0.012
5,ACCCATGC,-0.00508 ± 0.025
6,TCATCAGA,0.0324 ± 0.023
7,GGTGGTAC,0.2008 ± 0.0013
8,AACCAACG,0.0666 ± 0.046
9,TATTTCGA,0.061 ± 0.0057
10,GGTGAGTA,0.161 ± 0.095
11,AGCAGCGC,-0.00444 ± 0.031
12,AGTAGCAA,0.05 ± 0.025
13,CAAAACCC,-0.00717 ± 0.06
14,CCAGCGTC,0.0729 ± 0.014
15,CACTCATC,0.144 ± 0.018
16,CGCGCCAC,0.311 ± 0.013
17,AGACCCAA,-0.13 ± 0.028
18,GTGGAAAA,-0.0396 ± 0.017
19,GTGCGAAA,0.4814 ± 0.0014
20,AGACCACG,-0.117 ± 0.06
21,AAACAAGA,-0.26 ± 0.028
22,AGGACTTC,-0.126 ± 0.085
